Some of the results follow.
B1: PhoQ; a variant is named by its letters at X, in order, P23837 (parent)
chain: MKKLLRLFFPLSLRVRFLLATAAVVLVLSLAYGMVALIGYSVSFDKTTFRLLRGESNLFYTLAKWENNKLHVELPENIDKQSPTMTLIYDENGQLLWAQRDVPWLMKMIQPDWLKSNGFHEIEADVNDTSLLLSGDHSIQQQLQEVREDDDDAEMTHSVAVNVYPATSRMPKLTIVVVDTIPVELKSSYMVWSWFIYVLSANLLLVIPLLWVAAWWSLRPIEALAKEVRELEEHNRELLNPATTRELTSLVRNLNRLLKSERERYDKYRTTLTDLTHSLKTPLXXLQXXLRSLRSEKMSVSDAEPVMLEQISRISQQIGYYLHRASMRGGTLLSRELHPVAPLLDNLTSALNKVYQRKGVNISLDISPEISFVGEQNDFVEVMGNVLDNACKYCLEFVEISARQTDEHLYIVVEDDGPGIPLSKREVIFDRGQRVDTLRPGQGVGLAVAREITEQYEGKIVAGESMLGGARMEVIFGRQHSAPKDE

Variants of: B1
Test: enrichment ratio after two sorts for PhoP signalling (ratio (wild type AVST 3.29)); higher = more functional
Settings: with PhoP (E. coli)

Variant	enrichment ratio
MMFT	≤ 0.25
HWGV	≤ 0.25
HICK	≤ 0.25
WYSD	≤ 0.25
YMTT	≤ 0.25
ALSQ	16.2
FVYG	≤ 0.25
PCLM	≤ 0.25
QCLV	1.13
RYEW	≤ 0.25
IKIC	≤ 0.25
WMED	≤ 0.25
VWEI	≤ 0.25
VDER	≤ 0.25
HHVE	≤ 0.25
WVSD	≤ 0.25
PESP	1.07
YVQN	≤ 0.25
IVTW	≤ 0.25
RAPH	≤ 0.25
QDYQ	≤ 0.25
QKKG	≤ 0.25
RLLT	≤ 0.25
RAYH	≤ 0.25

Variant	enrichment ratio
NYPC	≤ 0.25
TVWY	≤ 0.25
APEY	≤ 0.25
GDAK	≤ 0.25
ANMA	3.57
VVTR	≤ 0.25
METR	≤ 0.25
HWIA	≤ 0.25
PSRD	≤ 0.25
GDRR	≤ 0.25
HACV	≤ 0.25
FQDN	≤ 0.25
GDCD	≤ 0.25
TNMK	≤ 0.25
RGTS	≤ 0.25
KASK	≤ 0.25
LEHE	≤ 0.25
FNRF	≤ 0.25
DFEG	≤ 0.25
GKPF	7.2
REFV	≤ 0.25
LCDS	≤ 0.25
QTPC	≤ 0.25
VCEG	≤ 0.25

Variant	enrichment ratio
DVYL	≤ 0.25
FHIP	≤ 0.25
ERFV	≤ 0.25
MGDY	≤ 0.25
PRTQ	≤ 0.25
GKQS	≤ 0.25
KCFW	≤ 0.25
HQDY	≤ 0.25
LPNI	≤ 0.25
RWIQ	≤ 0.25
PGCG	≤ 0.25
VDGW	≤ 0.25
IAHW	≤ 0.25
KETG	≤ 0.25
HPYC	≤ 0.25
VSME	3.41
YHKS	≤ 0.25
PLLW	≤ 0.25
MWYA	≤ 0.25
YHVI	≤ 0.25
EHWL	≤ 0.25
GYYT	≤ 0.25
HMRH	≤ 0.25
MASY	≤ 0.25

Variant	enrichment ratio
KGPK	≤ 0.25
FKIP	≤ 0.25
GSRY	≤ 0.25
LPNF	≤ 0.25
WFHW	≤ 0.25
NFSP	≤ 0.25
KGDR	≤ 0.25
PMKW	≤ 0.25
PWPC	≤ 0.25
PGQN	≤ 0.25
EHRT	≤ 0.25
SWIG	≤ 0.25
KSRI	≤ 0.25
YNLR	≤ 0.25
ELNC	≤ 0.25
NCGM	≤ 0.25
FVFH	≤ 0.25
KEWY	≤ 0.25
QKKT	≤ 0.25
GAHW	≤ 0.25
RYSS	≤ 0.25
TLML	≤ 0.25
EPTS	≤ 0.25
AKAI	5.1

Variant	enrichment ratio
YRCE	≤ 0.25
SHED	≤ 0.25
HMKI	≤ 0.25
MDNS	≤ 0.25
GKLR	≤ 0.25
YSHC	≤ 0.25
LAFK	≤ 0.25
QALQ	≤ 0.25
IVYF	≤ 0.25
NCSF	≤ 0.25
TDNP	≤ 0.25
WQYH	≤ 0.25
FNAG	≤ 0.25
EDHG	≤ 0.25
KRPC	≤ 0.25
YYWG	≤ 0.25
TKCI	10.8
EFMQ	≤ 0.25
DINW	≤ 0.25
MDDF	≤ 0.25
EQER	≤ 0.25
DNGP	≤ 0.25
SRDM	≤ 0.25
HNMF	≤ 0.25

Variant	enrichment ratio
ARCY	2.12
SANS	≤ 0.25
FPIQ	≤ 0.25
FQDG	≤ 0.25
NFCA	≤ 0.25
SHRP	≤ 0.25
AGMH	26
HQQC	≤ 0.25
GSIR	≤ 0.25
KRVR	≤ 0.25
QGSY	4.05
TTHW	≤ 0.25
DTPM	≤ 0.25
NRGQ	≤ 0.25
KRGG	≤ 0.25
VRLL	≤ 0.25
PYGT	≤ 0.25
WNFG	≤ 0.25
EQLM	≤ 0.25
PWIW	≤ 0.25
PSSH	≤ 0.25
FRDP	≤ 0.25
DYMA	≤ 0.25
WQVE	≤ 0.25

Variant	enrichment ratio
VKMC	≤ 0.25
KVTN	≤ 0.25
TYAT	≤ 0.25
ARKG	≤ 0.25
PTDC	≤ 0.25
YVCW	≤ 0.25
SQMW	≤ 0.25
ATVW	3.56
IGHG	≤ 0.25
FPLH	≤ 0.25
LASE	≤ 0.25
AASC	0.887
MDAK	≤ 0.25
MPDL	≤ 0.25
NGQK	≤ 0.25
RVNT	≤ 0.25
HNLT	≤ 0.25
MCHY	≤ 0.25
NYHD	≤ 0.25
YCCH	≤ 0.25
MHGS	≤ 0.25
MKNW	≤ 0.25
TIYQ	1.43
SPNV	≤ 0.25

Variant	enrichment ratio
DHRC	≤ 0.25
YLVM	≤ 0.25
KEAN	≤ 0.25
HAHY	≤ 0.25
PLVC	≤ 0.25
QCFI	≤ 0.25
FYYR	≤ 0.25
SWMY	≤ 0.25
ATFQ	2.02
FPNV	≤ 0.25
RLAD	≤ 0.25
AIGQ	≤ 0.25
GKVC	≤ 0.25
RIRN	≤ 0.25
HYHK	≤ 0.25
GSFW	≤ 0.25
LFQK	≤ 0.25
YLYK	≤ 0.25
HFGT	≤ 0.25
AVFW	≤ 0.25
QCHS	≤ 0.25
GSWS	≤ 0.25
THYM	2.75
LHKH	≤ 0.25

Variant	enrichment ratio
WDNF	≤ 0.25
QKRY	≤ 0.25
YYCG	≤ 0.25
DIPE	≤ 0.25
SIAH	6.54
YVDD	≤ 0.25
DESR	≤ 0.25
YGYN	≤ 0.25
TGKS	≤ 0.25
WVKN	≤ 0.25
PEEI	≤ 0.25
YDKG	≤ 0.25
NHWY	≤ 0.25
DCRD	≤ 0.25
DWIP	≤ 0.25
EMGV	≤ 0.25
QRDS	≤ 0.25
ISNV	0.738
QHDV	3.57
LQTH	≤ 0.25
GWAL	≤ 0.25
GYTE	≤ 0.25
FQRL	≤ 0.25
QNTR	≤ 0.25

Variant	enrichment ratio
LTNG	≤ 0.25
MTAW	≤ 0.25
LVMP	0.378
KHTD	≤ 0.25
IWHY	≤ 0.25
VYVG	≤ 0.25
SVCQ	10.8
LTCS	≤ 0.25
TKRQ	≤ 0.25
CYLP	≤ 0.25
EAWD	≤ 0.25
YDDG	≤ 0.25
FTMD	≤ 0.25
KSYV	≤ 0.25
RFCP	≤ 0.25
SEYW	≤ 0.25
YTDL	≤ 0.25
KLKV	≤ 0.25
MKIT	≤ 0.25
ARSW	≤ 0.25
SWQY	≤ 0.25
IQFQ	≤ 0.25
PKPR	≤ 0.25
EYCS	≤ 0.25

Variant	enrichment ratio
FHPG	≤ 0.25
YRNS	≤ 0.25
ENST	≤ 0.25
GECG	≤ 0.25
ASFT	1.36
YYLA	≤ 0.25
KQGM	≤ 0.25
HMNW	≤ 0.25
KKLC	≤ 0.25
MLWH	≤ 0.25
FGQC	≤ 0.25
VNGP	≤ 0.25
LIIL	≤ 0.25
VPIR	≤ 0.25
FGMT	≤ 0.25
NDTF	≤ 0.25
PQVR	≤ 0.25
PCMR	≤ 0.25
AHPY	≤ 0.25
MAMA	≤ 0.25
VMYP	≤ 0.25
MHWE	≤ 0.25
QTDR	≤ 0.25
ILIV	≤ 0.25

Variant	enrichment ratio
FHHS	≤ 0.25
YEFV	≤ 0.25
RVEC	≤ 0.25
WCFK	≤ 0.25
KKKV	≤ 0.25
VYVY	0.367
WTRV	≤ 0.25
WWSP	≤ 0.25
VPHW	≤ 0.25
IHFQ	≤ 0.25
PSFN	≤ 0.25
YMIC	≤ 0.25
MISS	≤ 0.25
PFQK	≤ 0.25
EHKQ	≤ 0.25
VKNC	≤ 0.25
SPTE	≤ 0.25
VPEC	≤ 0.25
NQVM	≤ 0.25
PCCA	≤ 0.25
LNVN	≤ 0.25
RPNG	≤ 0.25
CFSH	≤ 0.25
TNSS	13.1

Variant	enrichment ratio
DYYL	≤ 0.25
ILGD	≤ 0.25
TLRQ	≤ 0.25
DSNY	≤ 0.25
LLGL	≤ 0.25
FNRW	≤ 0.25
DSNP	≤ 0.25
MEWA	4.9
HIQT	≤ 0.25
SAGY	3.16
DLLG	≤ 0.25
QSTP	≤ 0.25
CPSF	≤ 0.25
RWKS	≤ 0.25
WMDR	≤ 0.25
WQTH	≤ 0.25
YRDC	≤ 0.25
GGAC	≤ 0.25

— a collection of fitness landscapes (doi:10.1126/science.1257360)
